Target: T1, SARS-CoV-2 receptor binding domain (RBD) of the Spike protein, Wuhan-Hu-1 (WT) (SARS-CoV-2 (Wuhan-Hu-1))
T1 construct: also called SARS-CoV-2-RBD
Assay: ELISA; competition (surrogate virus neutralization) ELISA: RBD adsorbed overnight at 4°C at 0.2 ug/well in carbonate/bicarbonate buffer pH 9.6, blocked with 3% skimmed milk; two-fold dilutions of Nbs (from 1 uM) 1 h at room temperature, then ACE2-HRP 2 h at RT; TMB, read at 450 nm
Conditions: both partners purified

B1: ACE2s-HRP (soluble ACE2 fused to horseradish peroxidase) (receptor)
chain: not shown
notes: also called ACE2-HRP; ACE2 receptor; not shown: HRP, C-terminal, kept
B1: binds.

Reference: paper doi:10.1101/2023.03.14.532528, “Nanobodies against SARS-CoV-2 reduced virus load in the brain of challenged mice and neutralized Wuhan, Delta and Omicron Variants” (bioRxiv, 2023)
